# Test results reported in PubChem BioAssay AID686971 (National Center for Advancing Translational Sciences (NCATS), 2013).
# The campaign covered roughly 360,000 compounds. About 7,500 (2.1%) were called active. This list was built around the results that the source calls inconclusive (neither active nor inactive); the mix of calls is not that of the screen. Calls follow the shape of the dose curve; as a rule, active = well fitted cell-killing curve with a large enough effect; inconclusive = small, poorly fitted or top-dose-only effect, or effect the other way, or another doubt; inactive = no such curve, though single readings can be large or run the other way. Potencies of inconclusive entries are left out as doubtful fits.
# Experiment: qHTS for induction of synthetic lethality in tumor cells producing 2HG: qHTS for the HT-1080-IDH1KD cell line;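 as to activity, negative = toxicity: 0% = DMSO wells and -100% = cell-free medium wells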
# Details: HT-1080 IDH1 knockdown viability, ATP luminescence, 48 h; activity, negative = toxicity: at 46.1 µM (top of the series) unless noted
# Method in brief: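 Knockdown cells (IDH1KD HT-1080) received compounds 2 h after plating at 750 cells/well and were kept 48 h at 37 °C in 5% FBS RPMI. A CellTiter-Glo luminescence read gave % activity for curve fitting.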
# Potency is read from the fitted curve at half-maximal effect; tags tell the direction and shape of the fitted curve.
Structure (SMILES),"activity, negative = toxicity",Potency
COc1ccc(NC(=S)N2CCC(NC(=O)c3ccc(F)cc3)CC2)cc1,inactive: -0.39%,–
Cc1nc2ccccn2c1-c1csc(Nc2cccc(O)c2)n1,–,active: 1.46 µM
COc1ccc(NC(=S)NC2CCCCC2)c(OC)c1,inactive: 6.97%,–
COc1cccc2cc(C(C)N(CCCN3CCOCC3)C(=O)Nc3ccc(Cl)cc3)oc12 (centres undefined),–,"inconclusive [cytotoxic, single point]"
CCOC(=O)C1(Cc2cccc(OC)c2)CCN(Cc2ccc(C)s2)CC1,–,"inconclusive [cytotoxic, partial curve]"
CCN(CC)C(=O)C(=O)c1ccn(-c2c(C)csc2C(=O)OC)c1,inactive: -0.0942%,–
Cc1nc(Nc2ccncc2)c2oc3ccccc3c2n1,–,active: 12.6 µM
C=CCN(C(=O)c1csnn1)C(C(=O)NCc1ccc(F)cc1)c1cccs1 (centres undefined),inactive: -6.28%,–
COc1ccc(CC(=O)N2N=C(c3ccncc3)CC2(O)C(F)(F)F)cc1 (centres undefined),–,active: 9.2 µM
COC(=O)[C@@]12CCCCN1[C@H](c1ccc(SC3CCCCC3)c(OC)c1)[C@@H]1C(=O)N(C)C(=O)[C@@H]12,–,"inconclusive [cytotoxic, single point]"
COC(=O)C1Cc2c([nH]c3ccccc23)CN1C(C)=O (centres undefined),inactive: 15.4%,–
C#CCOCCOCCOCCNc1nc(N2CCN(C(=O)CCCCCCCCCCNC(=O)[C@H]([C@@H](C)CC)n3cc(CCCCN=C(N)N)nn3)CC2)nc(N2CCN(C(=O)CCCCCCCCCCNC(=O)[C@@H]([C@H](C)O)n3cc(C)nn3)CC2)n1,–,active: 25.9 µM
CO/N=C(/CS(=O)(=O)Cc1ccccc1Cl)c1ccc(Cl)cc1Cl,–,"inconclusive [cytotoxic, single point]"
COc1ccc(NC(=O)C2(C)CCN2C(=O)Cc2ccccc2)cc1OC (centres undefined),–,"inconclusive [rising, partial curve, poor fit]"
NS(=O)(=O)c1ccc(CCNc2nn3c(-c4ccc(F)c(Cl)c4)cnc3s2)cc1,–,active: 11.6 µM
CC1(C(=O)NS(=O)(=O)c2cccc(C#N)c2)CCN1C(=O)CCc1ccccc1 (centres undefined),–,"inconclusive [rising, partial curve, poor fit]"
CCSc1ccccc1C(=O)Nc1nc2ccccc2c(=O)[nH]1,–,"inconclusive [cytotoxic, single point]"
Cc1cccc(C)c1NS(=O)(=O)c1cc2c3c(c1)CC(=O)N3CCC2,inactive: 13.3%,–
Cc1ccc(S(=O)(=O)C[C@@H]2OC[C@H](C(C)C)N2S(=O)(=O)c2ccc(C)cc2)cc1,inactive: -6.36%,–
Cc1ccc(OCc2ccc(C(=O)Nc3nc4ccccc4n3Cc3ccccc3)o2)c([N+](=O)[O-])c1,–,"inconclusive [cytotoxic, single point]"
Fc1ccc2nc(Nc3nc4c(s3)CCCC4)sc2c1,–,"inconclusive [cytotoxic, single point]"
COc1cccc(C(=O)/C=C/c2ccc(SC)cc2)c1,–,"inconclusive [cytotoxic, single point]"

Structure (SMILES),"activity, negative = toxicity",Potency
O=C(NCCCl)Nc1ccccc1OCCOc1ccccc1NC(=O)NCCCl,inactive: -15.7%,–
O=C(O)CCCN1C(=O)/C(=C/c2cn(-c3ccccc3)nc2-c2cccs2)SC1=S,–,"inconclusive [cytotoxic, partial curve]"
CCOC(=O)C1CCCN(c2nc3ccccc3nc2C(C#N)C(=O)NCc2ccccc2)C1 (centres undefined),inactive: -1.12%,–
Cn1cccc1/C=N/NC(=O)Cc1cccc2ccccc12,inconclusive: -32.5% [cytotoxic],–
COc1ccc(Nc2ncnc3c2cnn3Cc2ccccc2)cc1OC,–,"inconclusive [cytotoxic, single point]"
Cc1cccc2sc(NC(=O)C3CCN(S(=O)(=O)c4cc([N+](=O)[O-])ccc4Cl)CC3)nc12,–,"inconclusive [cytotoxic, single point]"
O=C(CSc1ncccn1)Nc1cc(Cl)ccc1[N+](=O)[O-],inactive: 1.81%,–
COC(=O)c1cnc(Oc2ccc(NC(=O)NC(=O)c3c(F)cccc3Cl)cc2)cc1C(F)(F)F,–,"inconclusive [cytotoxic, full curve, poor fit]"
O=C(O)c1cc(S(=O)(=O)NCCOc2ccccc2)ccc1Cl,inactive: 15.9%,–
Cc1ccccc1OCC(O)Cn1c(N2CCCCC2)nc2c1c(=O)[nH]c(=O)n2C (centres undefined),inactive: -3.05%,–
CCOC(=O)c1c(NC(=O)CN2CCCCC2)sc2c1CCN(C(=O)OCC)C2,–,"inconclusive [cytotoxic, single point]"
Cc1ccc(OCc2cc(C(=O)N(C)Cc3cnn(-c4ccccc4C)c3)no2)cn1,–,active: 20.6 µM
CCOC(=O)c1c(-c2ccc(C)o2)csc1NC(=O)CN1CCC(C(N)=O)CC1,–,"inconclusive [cytotoxic, single point]"
CCC(=O)Nc1nc(C)c(-c2csc(Nc3cccc(O)c3)n2)s1,–,active: 0.461 µM
CCn1c(COc2ccccc2C)nnc1SCC(=O)N1CCC(C)CC1,–,"inconclusive [cytotoxic, single point]"
O=C(NC(Nc1ncc(S(=O)(=O)c2ccc([N+](=O)[O-])cc2)s1)(C(F)(F)F)C(F)(F)F)c1ccc(Cl)cc1,–,"inconclusive [cytotoxic, full curve]"
Cc1cccc(-n2cc(CN3CCN(Cc4nccn4C)CC3)c(-c3cccc(F)c3)n2)c1,–,"inconclusive [cytotoxic, partial curve]"
O=S(=O)(NC1CCCCC1)c1ccc(F)c2ccccc12,–,"inconclusive [cytotoxic, single point]"
O=C(N/N=C/c1cccc(Br)c1)c1ccc(N2CCCC2=O)cc1,–,"inconclusive [cytotoxic, single point]"
Cc1oc(-c2ccccc2Cl)nc1CSCC(=O)N1CCCC1,–,"inconclusive [cytotoxic, full curve]"
N#C/C(=C\c1c(N2CCOCC2)nc2ccccn2c1=O)C(=O)NC1CCS(=O)(=O)C1 (centres undefined),inconclusive: -2.54% [cytotoxic],–
Cc1ccc(S(=O)(=O)Cc2ccccc2Cl)cc1,–,"inconclusive [cytotoxic, single point]"
